Read counts are not given, so values of variants with three or more changes are uncertain.

Self-cleavage data for 167 variants are collected here from the RNAGym collection of RNA variant scans (doi:10.7554/elife.90254).

First the molecules themselves.
B1: LINE1-mini (parent)
chain: GGCAGAGCUCAACACAGCGUGGCAAAGUGGCUGUGGCUAGACUGCC

This data set covers variants of B1. The data set is described as follows: self-cleavage, relative activity (ratio to wild type); higher = more cleavage; in vitro, sequencing; the parent is a self-cleaving ribozyme.
Take A12G G29A U32C C45A: the self-cleavage was found to be 0.05.
Next, A12G A14C U20G A39G: 0.11; A12U C15U G21A G33A: 0.12.
For A12G G22A A41G, the self-cleavage worked out at 0.01.
A12U A14G C15A G21U C37G U38A G40U: the self-cleavage stood at 0.01.
With A12G C13U A16G U20A G21A A25C, the self-cleavage amounted to 0.01.
With A12U A16G U20C U38C C42G the figure was 0.02.
With A12G C31U G44U the figure was 0.02.
On to A12G U20C C23U G40A, for which the self-cleavage worked out at 0.02.
On to A12G A25C C46G, for which the self-cleavage stood at 0.03.
Next, C13A G19A G21U: 0.07; A12U C13G A16U U28C: 0.03; A12G G22A C23A U38C: 0.01.
A12G C13G C15A G17U U20C C45G: the self-cleavage came out at 0.02.
In the case of A12G C23G G30C, the self-cleavage is 0.2.
On to C13A C18U G30U G36A A41G, for which the self-cleavage was 0.01.
Consider A12U G30A C46U, for which the self-cleavage was found to be 0.25.
Next, A12C G21U G27U U32G: 0.01.
For the variant C13A G21A G35C G44U, the self-cleavage stood at 0.09.
With A12G C18G G27A U43A G44A the figure was 0.03; with A12U A16C C23A G27C, 0.23.
Turning to C13A C15G G22C, the self-cleavage was 0.03.
Next, A12U G19A G21U: 0.65; A12U G30U C46U: 0.52.
With A12U C23G G36U G40A C42G the figure was 0.15; with C13A A14C U28C C42U, 0.1; with A12G A16G G36A U38A, 0.
For the variant A12U C13A A14C A41U, the self-cleavage worked out at 0.03.
With A12C G22A C23G U28C C46U the figure was 0.01; with A12G C13U C18U G19C C31A, 0.04.
Next, A12U A24G C42A: 0.03.
For A12U A24G C42G, the self-cleavage worked out at 0.02.
With C13A G17U A24G G36U C45A, the self-cleavage amounted to 0.04.
As to A12G C13A U20A A24U G27A U28G G33U C42U, the self-cleavage turned out to be 0.09.
As to A12U G17C C18A G30U U32A, the self-cleavage came to 0.01.
Next, A12U U28A G30U: 0.58; C13A C15A A26U C42U: 0.01.
For the variant A12U U38G C46G, the self-cleavage is 0.
With C13A G36A A39U, the self-cleavage was determined as 0.35.
A12C G27U G30U: the self-cleavage is 0.08.
Next, A12G C23G C37U G40A: 0.04; A12G G27U U32A C37A C42A: 0.05.
With C13A A14C G27C the figure was 0.1.
With C13A C15G C18G G27A U28C G30A G33U G35A the figure was 0.04.
Turning to A12U C15A C23A C45U, the self-cleavage came to 0.08.
In the case of A12U A39G G40U, the self-cleavage came to 0.14.
Next, A12G C15U U32A: 0.15.
Next, A12U C13G C23U G36U: 0.05; A12G G22U G30C: 0.03.
Next, A12G U20A G27A: 0.02; C13A C15A A25U A26C G40A A41G: 0.1; C13A A41C C42A C46G: 0.
As to A12U G35C U43G, the self-cleavage is 0.01.
As for A12U U43C C45A, the self-cleavage turned out to be 0.05.
In the case of C13A A24G G44C, the self-cleavage stood at 0.03.
Consider C13A A24G G44A, for which the self-cleavage came to 0.03.
Next, A12G G40U G44U C46A: 0.
For A12G U34G U38A, the self-cleavage was determined as 0.02.
For C13A G22U G36U, the self-cleavage came out at 0.16.
With A12U G22A U38A A41C the figure was 0.01; with A12U A14G A16U G27A G29A C31G, 0.03.
Next, A12G G17A G30A: 0; C13A C15U G22A G30C C31A G35A: 0.14; A12C U20A G29C G30C C45U C46G: 0.01.
Next, A12U G35U G36A: 0.27; A12G G17U C23A: 0.04; A12U C18A G21U G44A: 0.05.
As to A12U A25G U32C G35C U43G, the self-cleavage was 0.01.
With A12G A14G G19A the figure was 0.01.
With A12G A14G U20C A26C G36U the figure was 0.05.
With A12U C18A U28G the figure was 0.03; with C13A A24C G44C, 0.02; with C13A C31G G33U C46U, 0.
With C13A A16C C42A, the self-cleavage was 0.04.
On to C13A A14C C23G G44U, for which the self-cleavage was determined as 0.01.
Turning to A12C U20C A24U G35A, the self-cleavage came to 0.12.
Next, A12U G29C U32G: 0.02; C13A A14G G29A U43A: 0.05; A12G U20C U43A G44U: 0.01.
Next, A12U G29A C46A: 0.83.
On to C13A C18G G21C G40U, for which the self-cleavage is 0.01.
For the variant C13A C23A A26U C46A, the self-cleavage was found to be 0.07.
With A12G A14C G30C G36A A39G, the self-cleavage was 0.06.
As to A12U G21U C23G G35U, the self-cleavage amounted to 0.09.
With A12G G19U U28G the figure was 0.01.
With A12U G29U A39G C45G the figure was 0.03.
As to A12G G17U U20A U28C, the self-cleavage came out at 0.03.
As to A12C G40C C45G, the self-cleavage came to 0.
Consider A12U C15G G27U, for which the self-cleavage came out at 0.01.
For C13A C15U G17C G29A, the self-cleavage was found to be 0.25.
On to A12G G29U A39U C46G, for which the self-cleavage amounted to 0.08.
Next, A12U U20G G27A C31U: 0.11; A12G A25G G40A C46U: 0.03.
Next, A12G C15A G21U: 0.04; A12U G19A G21U A41C: 0.01.
On to A12C G27U G33A G36U G40C C45A, for which the self-cleavage was 0.
For the variant A12U C13G C23U C37G, the self-cleavage was 0.02.
With A12C U32A U38A the figure was 0.01; with A12U G27U C31A U32C C45U, 0.06.
For the variant C13A C15U A26U G33U A41U, the self-cleavage was determined as 0.18.
With A12G G19A G27A the figure was 0.01; with A12G G17U G30U U34G U38G A41U C46U, 0.27.
As for A12G G17A C23A G35A, the self-cleavage is 0.01.
With A12G C18G C37A U38C the figure was 0; with A12U G22U C46U, 0.08.
With C13A C37G A39U the figure was 0.03.
A12U A16U U20G A41C: the self-cleavage turned out to be 0.
For A12G C23G C31U G35A C45U, the self-cleavage is 0.01.
Next, A12C G30C G33A: 0.01; A12C U28G G30A A39G: 0.01.
For C13A G17U G19C G21A, the self-cleavage worked out at 0.05.
Take C13A G33U G44A: the self-cleavage stood at 0.04.
Next, C13A C15G G40A: 0.02; A12G G17U U34A: 0.02.
With C13A A24G U34C A41U the figure was 0.02; with A12G G21C C23G A24C, 0.02.
Take A12U U20A G33U: the self-cleavage came out at 0.03.
Next, A12U G36A C45A: 0.
For A12G G17A G29C G40A C42U, the self-cleavage was 0.01.
Take A12G C23A U38A G44A: the self-cleavage turned out to be 0.01.
A12G G27U C46U: the self-cleavage was 0.01.
Next, C13A G17U C31U G35C: 0.
With C13A C15G G35C C42G, the self-cleavage came to 0.02.
With C13A C31U G35U C46A the figure was 0.17.
Next, C13A C18A A25G: 0.06; A12U G17A C18U C31G G36C: 0.01.
In the case of A12G C18G G27C, the self-cleavage is 0.02.
Next, C13A A14U G21A C46A: 0.09.
Turning to C13A A16C G30C U43G, the self-cleavage was determined as 0.
Next, A12U C23G U34G G40A: 0.01; C13A G17A C18G G27C: 0.03; A12U C13U G36U G40A: 0.09.
Turning to C13A G33C U38A A41G, the self-cleavage was determined as 0.01.
With A12U C18A A24U G36A the figure was 0.06.
Take A12C U28G U34G C46U: the self-cleavage stood at 0.02.
Next, C13A C18U G22U: 0.11.
As for A12U G21U G29A, the self-cleavage came out at 0.11.
Next, A12C G40U C45G: 0.05; A12U U20C C23A A26U U32C: 0.02; A12G C15A G19A G36C A41G: 0.01.
With A12G A16C A25C C37U, the self-cleavage is 0.09.
For the variant A12U C18A G19C G27C, the self-cleavage is 0.08.
With C13A C18A C31U the figure was 0.03; with C13A G22C C31G U38C C46U, 0.06; with A12G G17U G21A C46U, 0.12.
Next, A12U G33U G35A: 0.
Next, A12U A24C U38A: 0.03; C13A A25C G29A: 0.01; C13A C42A G44U C45G: 0.01.
For C13A C15U G40C, the self-cleavage came to 0.18.
Next, C13A G17A G19U C31A: 0.04; A12U C15A C45G: 0.19.
With A12G G17A A25U G35U G36A U43A the figure was 0.5.
With A12G G19U G40A the figure was 0.03; with C13A G17C A26U, 0.02.
As for C13A C15G A16G G36A C45G, the self-cleavage is 0.02.
Next, A12U C23G G27A: 0.09; A12U C31A C45A: 0.02.
Next, C13A C23G C37G: 0.03.
With C13A A16G C42A the figure was 0.
Consider A12G C18A G30A, for which the self-cleavage was 0.06.
With C13A C15A U32A, the self-cleavage was determined as 0.02.
Next, A12G A24G C37A G44U: 0.01; A12G U20C C45U: 0.02; A12G G17U G33U: 0.05.
Turning to C13A G22A U28G C37A G40U C46U, the self-cleavage was found to be 0.18.
Next, A12G C18A G19C U34A: 0.
